Measurements published in PubChem BioAssay AID1452 (National Center for Advancing Translational Sciences (NCATS), 2008).
Out of some 150,000 compounds screened, about 190 (0.13%) were called active. Not shown: some 2% with an inconclusive outcome. The call rests on the fitted dose curve; in most records, active means well fitted inhibition curve with a large enough effect; inconclusive means small, poorly fitted or top-dose-only effect; inactive means flat fitted curve, though single readings scatter. The list shows a part of the results, in another mix than the full data.

What follows are molecules tested against Polyunsaturated fatty acid lipoxygenase ALOX12 (Homo sapiens) (UniProt P18054) (assay: qHTS Assay for Inhibitors of 12-hLO (12-human lipoxygenase)). Settings: purified 12-hLO, xylenol orange hydroperoxide absorbance; series mostly up to 57.1 µM; activity change, negative = inhibition: at the top concentration.
How it was run: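 Lipoxygenase turnover measured by absorbance at 573 and 405 nm after Fe-XO development. Human 12hLO 150 nM, arachidonate 40 uM, pH 7.0 Hepes buffer with detergent; 15 min compound preincubation, 30 min reaction.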
Further: nearly all actives have a fitted effect of over 55% in size.
On the % scale 0 is the no-effect control and ±100 the full control effect; potency means the concentration at half of the fitted maximal effect.

Chain of UniProt P18054 (P18054 whole entry, looked up): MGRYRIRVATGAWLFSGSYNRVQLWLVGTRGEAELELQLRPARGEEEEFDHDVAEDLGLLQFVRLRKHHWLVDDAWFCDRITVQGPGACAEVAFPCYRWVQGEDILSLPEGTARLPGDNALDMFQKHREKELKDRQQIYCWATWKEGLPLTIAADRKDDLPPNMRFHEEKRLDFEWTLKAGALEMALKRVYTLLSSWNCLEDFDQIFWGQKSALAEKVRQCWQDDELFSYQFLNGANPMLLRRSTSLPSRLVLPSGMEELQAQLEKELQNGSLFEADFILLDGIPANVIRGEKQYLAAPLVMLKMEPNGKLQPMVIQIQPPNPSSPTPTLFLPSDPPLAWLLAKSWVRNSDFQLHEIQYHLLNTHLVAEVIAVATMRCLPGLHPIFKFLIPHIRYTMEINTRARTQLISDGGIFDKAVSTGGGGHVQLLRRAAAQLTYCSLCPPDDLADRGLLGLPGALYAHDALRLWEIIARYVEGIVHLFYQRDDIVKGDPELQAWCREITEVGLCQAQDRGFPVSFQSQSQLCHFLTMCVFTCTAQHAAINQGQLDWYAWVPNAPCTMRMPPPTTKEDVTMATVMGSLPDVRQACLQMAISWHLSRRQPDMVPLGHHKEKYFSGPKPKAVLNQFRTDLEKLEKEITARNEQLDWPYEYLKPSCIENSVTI

Q: With `COc1ccc(/C=C\C(=O)Nc2ccccc2C(=O)O)cc1OC` as the molecule, how does the “activity change, negative = inhibition” value read?
A: inactive: -4.09%

Q: Which “activity change, negative = inhibition” value does the source give for `CCOc1nc(-c2ccc(C)cc2)ccc1-c1noc(-c2cccnc2)n1` here?
A: inactive: 44%

Q: How did the “activity change, negative = inhibition” value turn out when `CC(C)N(CCC(=O)c1ccc2ccccc2c1)Cc1ccccc1` was run?
A: inactive: -25%

Q: For `Cc1ccc(C2=N/C(=C/c3cccs3)C(=O)N2Nc2ccccc2)cc1`, which “activity change, negative = inhibition” value is on record?
A: inactive: -18%

Q: Which “activity change, negative = inhibition” value does the source give for `O=c1[nH]c(=O)n([C@@H]2C[C@H](O)[C@H](CO)O2)cc1C(F)(F)F` here?
A: inactive: -5.6% [at 25.6 µM]

Q: For `O=c1c2ccccc2sn1-c1ccccc1`, which Potency is on record?
A: active: 12.6 µM

Q: How did the “activity change, negative = inhibition” value turn out when `Cc1ccccc1C(=O)/C(C#N)=N/Nc1c(C)n(C)n(-c2ccccc2)c1=O` was run?
A: inactive: -17.9%

Q: How did the Potency turn out when `CSCC[C@H](NC(=O)c1ccc(Cl)c(S(=O)(=O)N2CCCC2)c1)c1nc2ccccc2[nH]1` was run?
A: active: 17.8 µM

Q: For `NC[C@H]1O[C@@H](n2cnc3c(=O)[nH]c(N)nc32)[C@@H](O)[C@@H]1O`, which activity change, negative = inhibition is on record?
A: inactive: -7.58% [at 11.4 µM]

Q: `CC(C)CN(CC(C)C)C(=O)C12CCC(C)(C(=O)O1)C2(C)C` (stereo not drawn) was tested. Which “activity change, negative = inhibition” value did it give?
A: inactive: 30.2%

Q: With `CN(Cc1cnc2nc(N)nc(N)c2n1)c1ccc(C(=O)NC(CCC(=O)O)C(=O)O)cc1` (stereo not drawn) as the molecule, how does the “activity change, negative = inhibition” value read?
A: inactive: 0.867%

Q: `Cc1ccc(S(=O)(=O)c2cc3c(=O)n4ccccc4nc3n(CC3CCCO3)c2=N)cc1C` (stereo not drawn) was tested. Which “activity change, negative = inhibition” value did it give?
A: inactive: 35.8%

Q: Which Potency does the source give for `Nc1nc(N)c2nc(-c3ccccc3)c(N)nc2n1` here?
A: inactive

Q: For `N[C@@H](Cc1ccc(O)c(O)c1)C(=O)O`, which Potency is on record?
A: inactive

Q: How did the “activity change, negative = inhibition” value turn out when `CC1=C(C(=O)Nc2ccccc2)C(c2ccc3c(c2)OCO3)C2=C(CCCC2=O)N1` (stereo not drawn) was run?
A: inactive: 33.1%

Q: How did the Potency turn out when `O=C(c1ccc(F)cc1)C1CCN(CCn2c(=O)[nH]c3ccccc3c2=O)CC1` was run?
A: inactive

Q: Which Potency does the source give for `CCN(CC)C(C)CN1c2ccccc2Sc2ccccc21` (stereo not drawn) here?
A: active: 12.6 µM

Q: For `O=C(O)C1=CC(=C(c2ccc(O)c(C(=O)O)c2)c2ccc(O)c(C(=O)O)c2)C=CC1=O`, which “activity change, negative = inhibition” value is on record?
A: inactive: -13.1%

Q: How did the “activity change, negative = inhibition” value turn out when `CCCn1c2c(c(O)c(C(=O)NCCCN(CC)CC)c1=O)CCCC2` was run?
A: inactive: 33%

Q: `COc1cccc(N(C(=O)CS(=O)CC(=O)Nc2ccc(F)cc2)C(C(=O)NC2CCCCC2)c2cccs2)c1` (stereo not drawn) was tested. Which “activity change, negative = inhibition” value did it give?
A: inactive: 11.6%

Q: How did the “activity change, negative = inhibition” value turn out when `CCC(CO)NCc1ccc(OC2CCCC2)cc1` (stereo not drawn) was run?
A: inactive: 35.4%

Q: With `Cc1ccc(S(=O)(=O)N2CCC(C(=O)NCC3CCCO3)CC2)cc1` (stereo not drawn) as the molecule, how does the “activity change, negative = inhibition” value read?
A: inactive: -8.94%

Q: For `COc1cc([C@H]2Oc3cc([C@H]4Oc5cc(O)cc(O)c5C(=O)[C@@H]4O)ccc3O[C@@H]2CO)ccc1O`, which “activity change, negative = inhibition” value is on record?
A: inactive: 4.96%

Q: Which “activity change, negative = inhibition” value does the source give for `CNCC(O)c1ccc(O)c(O)c1` (stereo not drawn) here?
A: inactive: -2.37%

Q: For `Cn1c2ccccc2c2nnc(SCc3ccc4nonc4c3)nc21`, which “activity change, negative = inhibition” value is on record?
A: inactive: 36.5%

Q: `O=C(O)C1=CCCN(CCON=C(c2ccccc2)c2ccccc2)C1` was tested. Which “activity change, negative = inhibition” value did it give?
A: inactive: -1.23%

Q: `N#CC1=C2SCN(c3ccccc3)CN2C(=O)CC1c1c(Cl)cccc1Cl` (stereo not drawn) was tested. Which Potency did it give?
A: active: 28.2 µM

Q: `CN1Cc2c(N)cccc2C(c2ccccc2)C1` (stereo not drawn) was tested. Which Potency did it give?
A: inactive

Q: For `CN(C)c1ccc(C(=C2C=CC(=[N+](C)C)C=C2)c2ccc(N(C)C)cc2)cc1`, which “activity change, negative = inhibition” value is on record?
A: inactive: -27.8%

Q: For `CN(Cc1cnc2nc(N)nc(N)c2n1)c1ccc(C(=O)N[C@@H](CCC(=O)O)C(=O)O)cc1`, which “activity change, negative = inhibition” value is on record?
A: inactive: 53.4%

Q: Which “activity change, negative = inhibition” value does the source give for `COC(=O)c1ccc(C2C(Oc3ccc(OC)cc3)C(=O)N2CCc2ccc(OC)c(OC)c2)cc1` (stereo not drawn) here?
A: inactive: 28%

Q: With `Cc1ccc(S(=O)(=O)NC(=O)NN2CCCCCC2)cc1` as the molecule, how does the “activity change, negative = inhibition” value read?
A: inactive: -0.352% [at 25.6 µM]

Q: `CC(Oc1ccc(Cl)cc1Cl)C(=O)NC1=NN(c2ccccc2)C(=O)C1` (stereo not drawn) was tested. Which Potency did it give?
A: active: 8.91 µM

Q: Which Potency does the source give for `CCN(c1ccccc1)S(=O)(=O)c1ccc(NC(=S)NC(=O)c2cccs2)cc1` here?
A: active: 25.1 µM

Q: `c1ccc([C@@H]2CN3CCSC3=N2)cc1` was tested. Which Potency did it give?
A: inactive

Q: With `CCCCCCCCCCCC1=C(O)C(=O)C=C(O)C1=O` as the molecule, how does the Potency read?
A: active: 8.91 µM

Q: With `Cc1ccc(C(=O)Nc2cccc(C(=O)NCc3ccco3)c2)cc1` as the molecule, how does the “activity change, negative = inhibition” value read?
A: inactive: 34.7%

Q: `CC/C(=C(\c1ccccc1)c1ccc(OCCN(C)C)cc1)c1ccccc1` was tested. Which Potency did it give?
A: inactive

Q: How did the “activity change, negative = inhibition” value turn out when `CC1(C)NC(=O)N(c2ccc([N+](=O)[O-])c(C(F)(F)F)c2)C1=O` was run?
A: inactive: 1.67% [at 25.6 µM]

Q: For `CC(NC(=O)CN1C(=O)COc2ccccc21)c1ccccc1` (stereo not drawn), which “activity change, negative = inhibition” value is on record?
A: inactive: 9.04%

Q: For `Nc1cc(-c2ccncc2)c[nH]c1=O`, which Potency is on record?
A: inactive

Q: With `CCCCCCCCCCNC(=O)C(=O)Nc1ccccn1` as the molecule, how does the “activity change, negative = inhibition” value read?
A: inactive: 32.9%

Q: With `CCOc1ccc2c(c1)C(C)=CC(C)(C)N2` as the molecule, how does the “activity change, negative = inhibition” value read?
A: inactive: -21.2%
